Assay results: the supplement of paper PMC11417369
± gives the standard deviation of the averaged measurements. The list shows a part of the results.

What follows are sequences tested on PfAP2-I AP2 domain 3 (GST-tagged) (assay: gcPBM binding intensity (ln(normalized median fluorescence intensity)); higher = stronger DNA binding).
In short: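 DNA-binding domains from P. falciparum, fused to GST and produced in E. coli, were put on an Agilent 4 × 180k double-stranded probe array for 1 h in 1× PBS holding 1% milk, 0.2 mg/ml BSA, 0.5% salmon testes DNA and 0.03% Triton X-100. Probes were primer-extended, 36 bp long and drawn from intergenic genomic regions, with negative controls included. After Alexa488 anti-GST antibody detection and a 488 nm scan, binding intensity was set as the highest Masliner-normalised natural-log median intensity across replicate spots of either probe orientation.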

Sequence	gcPBM binding intensity (ln)
CTTTTTTAAAATATTTAACACACAATTTTAATGCAT [CACACA_site9303]	8.24 ± 0.29
AAAATTAGGAGACATGCATGTAACGATAAATATAAC [TGCATGCA_site148]	8.02 ± 0.86
TTATATTTATATATTTGTACGTATGTATATAATTCA [XGTACX_site2993]	7.67 ± 0.3
ATTCTAATAATATATACACACACATATATATTTATA [CACACA_site8629]	7.96 ± 0.35
ATATAAATATTTATTAGTACACATTAGTGTAGTTTT [XGTACX_site4493]	7.91 ± 0.56
CTATATTATTTTTCTTGTACGTAGGAAATATAGCTA [XGTACX_site6176]	9.56 ± 0.4
GGTGGCTAAATTACAACACACGACGGAATATTATAT [CACACA_site4114]	8.29 ± 0.33
AATATATGGTTTCATTATATTAAATTCAATTTAATG [CACACA_negctrl_site675]	7.38 ± 0.49
ACCGTGGGAAGACACACACACACACCCACATATATA [CACACA_site333]	8.24 ± 0.78
TTTTATTCATTGAGCACACAAAATAAATTATCAAAA [CACACA_site3279]	8.39 ± 0.028
AGTATATAATAATTTACACACAAAAAAATATCAGGA [CACACA_site3517]	7.82 ± 0.59
TGATTTATCTATATTTTATAAGTTATTTATTTTTTT [CACACA_negctrl_site1603]	7.05 ± 0.4
TTTTATAATGTTGTAGTGCAAAATACGTATATTTAT [GTGCAC_site9826]	10.3 ± 0.36
AATAAATATATGTACACACACAAATATATACATATC [CACACA_site1903]	8.04 ± 0.29
GAAAATTATATGTGTTGTACACTTGCAACAACTATT [XGTACX_site3637]	7.74 ± 0.51
AAAATATATATTAACACACACACAAAAAAAAAAAAA [CACACA_site1325]	7.99 ± 0.64
AGATATAAGAAAAGCACACACACACCCAAAAAAAAA [CACACA_site2826]	8.66 ± 0.38
TGGAGGATAGTTCACAGTACCCAGTAACTCTACGGA [XGTACX_site4930]	7.36 ± 0.61
AAAGTATAAATAAATACACACATATATATATATATA [CACACA_site2892]	9.32 ± 0.33
AACCATAACTCATATGCACACATAAATATTACATAT [CACACA_site9273]	8.81 ± 0.42
TACATTCGGAGTAAAAAAAAATTTATACAATTACTT [XGTACX_negctrl_site29]	7.38 ± 0.73
TGTGTATATAAATAATGTACATATATATTTTTTTAT [XGTACX_site7341]	7.79 ± 0.22

Sequence	gcPBM binding intensity (ln)
GTAAAAAAAAAAAAAAGTACATTATACATATATTTA [XGTACX_site5447]	7.53 ± 0.12
AAAAATGTATGTATGGTGCAGTATTCATATCATTTT [GTGCAC_site9458]	10.93 ± 0.057
AAAATGAACAAACACACACACATATATATATATATA [CACACA_site2403]	9.33 ± 0.31
TTATTGTGTAAGATGATTTTCTTCGTCACTTTGAAA [CACACA_negctrl_site1814]	7.12 ± 0.48
TCTTGAAAAAGAATCAATCGGTCGACAAAAAAAAAA [CACACA_negctrl_site1099]	8.34 ± 0.64
AAAAAACACTTAAGGTGTACCTTTTAATATAAGTAT [XGTACX_site2397]	7.68 ± 0.57
ATATTCTTGTTTAATACACACTGTAGTATTATAGAT [CACACA_site6341]	7.91 ± 0.62
TTTTTTAATATTTATTAATTAAACTTTGTTTTTGTT [XGTACX_negctrl_site454]	7.25 ± 0.61
TAATATTATTATTTTACACACTTTTTTCCTTTTATC [CACACA_site2457]	7.66 ± 0.72
AAAGAATTTAAATATTGTACGCAATATATAAAAAAA [XGTACX_site7616]	7.88 ± 0.3
ATAATATTATACTTTGCACACATCTGAAATGACATA [CACACA_site3952]	9.02 ± 0.3
TACAATTTGATATATACACACAAATAAATTATGCTT [CACACA_site6534]	7.53 ± 0.47
AAAAGTACAATATATATGTATGTGTATAGAATGGTT [TGCATGCA_negctrl_site76]	8.16 ± 0.75
TTTGATAAAATTGATATCCTATAATTATATAAATAA [GTGCAC_negctrl_site317]	7.52 ± 0.4
AAAAAACAGACATACACACACACACCCATATATATA [CACACA_site3392]	8.29 ± 0.97
GATAAAATAAAAGTGGGTACTTAAATATATATATAA [XGTACX_site8457]	7.79 ± 0.43
AGAAAAGAAATTAGTTGTACTCTGATGAATTATCCT [XGTACX_site6284]	7.56 ± 0.42
TACCCAAAGTTACATACACACTAATATTTACACCAT [CACACA_site4709]	7.99 ± 0.61
GATGTTCATCACTACACACACAAAGAAATATAAATA [CACACA_site7294]	7.74 ± 0.61
TAATAATAGTGAGAGTGTACTTTAAATAAAATATAT [XGTACX_site2850]	7.97 ± 0.44
TTCTATATATATATAGACAAACGATAAAATAAAAAA [GTGCAC_negctrl_site142]	7.92 ± 0.42
